We go through 53 molecules from PubChem BioAssay AID1347073 (National Center for Advancing Translational Sciences (NCATS), 2019).

Molecules are shown by their SMILES. The campaign covered roughly 45,000 compounds. About 200 (0.44%) were called active. Not shown: some 7% with an inconclusive outcome. The call rests on the fitted dose curve; in most records, active means well fitted activation curve with a large enough effect; inconclusive means small, poorly fitted or top-dose-only effect; inactive means no such curve, though single readings can be large or run the other way. The list shows a part of the results.

The nature of the test: qHTS of TDP-43 Inhibitors: NCGC Sytravon Library Screen. Further: 0% is about no effect; nearly all actives have a fitted effect of over 55% in size. The note with it: yeast TDP-43 toxicity rescue, BacTiter-Glo growth, 24 h; series mostly up to 46.1 µM; growth rescue (activation): at the top concentration. A digest of the protocol: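 TDP-43-expressing yeast, pregrown in raffinose, seeded at OD600 0.02 in galactose medium with compound for 24 hr at 30 deg C. Growth read by BacTiter-Glo luminescence, so rescue of toxicity appears as activation.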
On the technique in general: In qHTS, concentration-response curves come from the screen itself.
Consider `CN(NC(=O)CN1C(=O)c2ccccc2C1=O)C1=NS(=O)(=O)c2ccccc21`, for which the “growth rescue (activation)” value was inactive: -2.36%. Next, `COc1ccc(-n2nc(C(=O)NCC(=O)N3CCCCC3)c3ccccc3c2=O)c(OC)c1`: inactive: -1.43%. Next, `COc1ccc(NS(=O)(=O)c2cc(C(=O)N3CCN(C(C)=O)CC3)ccc2Cl)cc1`: inactive: -11.5%; `Cc1ccccc1C(=O)Nc1ccnn1C1CCN(Cc2cnn(C)c2)CC1`: inactive: -0.116%. As for `COc1ccc(/C=N/Nc2cc(N(C)C)nc(N(C)C)n2)cc1`, the figure is inactive: -0.143%; as for `O=C(CNS(=O)(=O)c1cccs1)NCc1ccccc1`, inactive: -17.6%; as for `CS(=O)(=O)c1cccc(C(=O)N(CCc2ccccc2)Cc2cccs2)c1`, inactive: 4.71%. In the case of `CC(C)CNC(=O)C1CC(=O)OC12CCCCC2` (stereo not drawn), the “growth rescue (activation)” value was inactive: -0.275%. As for `Cc1cc(-c2n[nH]c(=S)n2/N=C/C=C/c2ccccc2)n[nH]1`, the figure is inactive: 18.1%; as for `Cc1cc(C)c(NC(=O)CSc2nnc(CN3CCOCC3)n2C)c(C)c1`, inactive: -3.38%.

On to `COc1ccc(-c2c(C)n([O-])c3c([n+]2=O)CCCCC3)cc1`, for which the “growth rescue (activation)” value is inactive: 14.1%. Regarding `CCn1cc(C(=O)NC(C)CCc2ccccc2)c(=O)c2cc(S(=O)(=O)N(C)C)ccc21` (stereo not drawn), the “growth rescue (activation)” value is inactive: -15.5%. Next, `CN(C)C(=O)C(OC(=O)c1ccc2ccccc2n1)c1ccccc1` (stereo not drawn): inactive: -4.36%; `Cc1c(C(=O)NCc2ccc(Cl)cc2)oc2ccc3c(c12)C(=O)CC(C)(C)O3`: inactive: 16.4%. On to `O=C(N/N=C/c1ccc2c(c1)OCO2)C(=O)Nc1cccc(Cl)c1`, for which the “growth rescue (activation)” value is inactive: 2.54%. As for `O=C(c1ccccc1-c1ccccc1)N1CCCCC1`, the figure is inactive: 9.32%; as for `Nc1cc(=O)[nH]n1C1CCCCC1`, inactive: -0.785%; as for `COc1cc(C(=O)N2CCCCC2c2cc(C(=O)Nc3ccccc3Cl)no2)cc(OC)c1C` (stereo not drawn), inactive: 7.88%. Next, `Cc1ccc(NCc2n[nH]c(=S)n2-c2ccccc2)cc1`: inactive: 3.07%; `CCN(CC)S(=O)(=O)c1ccc(C)c(NC(=O)CN2C(=O)NC3(CCCC3)C2=O)c1`: inactive: 2.16%; `Cc1nc(N2CCN(Cc3ccc(Cl)cc3)CC2)c2oc3ccccc3c2n1`: inactive: 3.67%. Next, `O=C(NC1CCCCC1)c1c2c(nc3ccccc13)CCC2`: inactive: 3.05%; `CCOC(=O)c1cc(C#N)c(SCC(=O)OC)[nH]c1=O`: inactive: -2.88%; `COCC1CCCN(C(=O)c2ccc(OC3CCN(Cc4ccccn4)CC3)cc2)C1` (stereo not drawn): inactive: -10.9%. With `O=C(Nc1ccc(Br)cc1F)c1ccc2c(c1)OCCO2`, the “growth rescue (activation)” value is inactive: 12.2%. For `CCc1nc(SCC(=O)Nc2ccccc2Cl)n[nH]1`, the “growth rescue (activation)” value is inactive: 12.1%.

In the case of `CCOC(=O)N1CCN(CC(O)COc2cc(C)cc(C)c2)CC1` (stereo not drawn), the “growth rescue (activation)” value was inactive: -9.34%.

`O=C(Nc1ccc(Cl)cc1)C1CCCN1C(=O)NCc1ccccc1` (stereo not drawn): the “growth rescue (activation)” value is inactive: -2.15%. Next, `CC(C)(C)c1ccc(-c2n[nH]c(=S)n2CCCN2CCOCC2)cc1`: inactive: 10.8%. As for `O=C(CCNC(=O)c1ccco1)NCCc1c[nH]c2ccccc12`, the figure is inactive: 20.7%. `Cc1ccc(N2C(=O)C3CCCN3C2=S)cc1` (stereo not drawn): the “growth rescue (activation)” value was inactive: -1.46%. Next, `N#C/C(=C\c1ccc(OCc2ccccc2)cc1)C(=O)Nc1ccc(C(=O)O)cc1`: inactive: 19.7%; `Cc1ccccc1C(=O)NCC(=O)Nc1ccccc1C(F)(F)F`: inactive: -0.33%. Next, `COc1cc(NC(=O)CN2C(=O)NC(c3ccccc3)(c3ccccc3)C2=O)c(C)cc1[N+](=O)[O-]`: inactive: -24.3%. With `COc1cc2c(=O)n(CCC(=O)NCC3CCCO3)c(=O)n(CC(=O)Nc3ccccc3C)c2cc1OC` (stereo not drawn), the “growth rescue (activation)” value was inactive: 8.55%.

Take `C=CCn1c(=O)c2c(nc3n2CCCN3CCc2ccc(OC)c(OC)c2)n(C)c1=O`: the “growth rescue (activation)” value is inactive: 7.46%. Next, `COc1cccc2c1cc1c(=O)n(CC(=O)N3CCN(c4cccc(C)c4C)CC3)nc(C)n12`: inactive: -10.9%. Next, `O=[N+]([O-])c1ccc(Cl)c2cccnc12`: inactive: 9.54%; `Cc1ccc(CNC(=O)C2CCN(S(=O)(=O)N3CCCCC3)CC2)cc1`: inactive: 15.1%. As to `COc1cc(/C=N/n2c(=S)[nH]nc(C)c2=O)cc([N+](=O)[O-])c1O`, the “growth rescue (activation)” value is inactive: -2.16%.

Turning to `CCOc1ccc(NC(=S)NCc2ccco2)cc1`, the “growth rescue (activation)” value was inactive: 21%. Next, `Cc1ccc(NC(=S)NCC2CCN(C(C)c3ccccc3)C2)cc1` (stereo not drawn): inactive: -5.92%; `CCCCCC(O)(c1ccc(OC)cc1)C(CN1CCOCC1)c1ccccc1` (stereo not drawn): inactive: 6.6%; `CC(=O)c1cccc(NC(=O)C2CC(=O)N(C3CCCC3)C2)c1` (stereo not drawn): inactive: 18.2%.

As for `CC1CCN(S(=O)(=O)c2ccc3c(c2)CCN3C(=O)Nc2ccccc2Br)CC1`, the “growth rescue (activation)” value was inactive: -9.34%. Next, `COc1ccc(CNC(=O)CSc2nc3ccc(N)cc3s2)cc1`: inactive: 30.8%; `CC(=O)NC(Cc1ccccc1F)C(=O)NC1CCN(c2ncccc2[N+](=O)[O-])CC1` (stereo not drawn): inactive: 1.19%; `CSc1ccc(Cl)c(C(=O)NNC(=O)c2cccs2)c1`: inactive: 29.9%. As for `COc1ccc(Cn2c(=O)[nH]c3cc(C(=O)NCCCOC(C)C)ccc3c2=O)cc1`, the figure is inactive: -0.599%; as for `CN(C)CCNC(=O)c1sc2nc(-c3ccccc3)cc(C(F)(F)F)c2c1N`, inactive: 6.32%; as for `O=C(NNC(=O)c1cccs1)c1ccc(S(=O)(=O)N2CCCCC2)cc1`, inactive: 13.5%.

Turning to `C/C(CC(=O)Nc1ccccc1C#N)=N\NC(=O)c1ccncc1`, the “growth rescue (activation)” value is inactive: -4.23%. As for `O=C(NCCCN1CCCCCC1)c1cc2c(=O)oc3ccccc3c2s1`, the “growth rescue (activation)” value is inactive: -6.92%.
